# Experimental data published in US20200270321A1 (Hoffmann-La Roche, published 2020).
# Columns and labels:
# [1] = molecular target: T1, monomeric human 4-1BB His molecule (human); assay: SPR (Biacore T100, 25 C), fusion molecule captured by anti-human Fc, hu4-1BB avi His as analyte, 1:1 Langmuir fit
# T1 construct: also called Hu 4-1BB avi His; hu4-1BB avi His
# [2] = molecular target: T2, human 4-1BB (CD137) on cells (human, UniProt Q07011 24-255); assay: flow cytometry on activated human PBMC, gate CD4+ T cells; PE anti-human IgG Fc-gamma F(ab')2; median fluorescence, baseline corrected
# T2 construct: whole, on cells; also called 4-1BB+ human T cells
# [3] = molecular target: T2, human 4-1BB (CD137) on cells; assay: flow cytometry on activated human T cells, gate CD8+; PE anti-human IgG Fc-gamma F(ab')2; MFI baseline corrected
# [4] = molecular target: T2, human 4-1BB (CD137) on cells; assay: flow cytometry on activated human PBMC, gate CD8+ T cells; PE anti-human IgG Fc-gamma F(ab')2; median fluorescence, baseline corrected
# [5] = molecular target: T3, human fibroblast activation protein (huFAP) on cells (human, UniProt Q12884 1-760); assay: flow cytometry on NIH/3T3-huFAP clone 39 cells; FITC anti-human IgG Fc-gamma F(ab')2; median fluorescence
# T3 construct: Transfected in NIH/3T3-huFAP clone 39; also called NIH/3T3-huFAP clone 39; WM266-4
# [6] = molecular target: T4, mouse 4-1BB on activated mouse splenocytes (mouse, UniProt P20334 24-256); assay: flow cytometry on activated mouse splenocytes, gate CD8+ T cells; PE anti-human IgG Fc-gamma F(ab')2; median fluorescence, baseline corrected
# T4 construct: whole, on cells; also called mouse CD137
# T4 sequence (P20334 24-256): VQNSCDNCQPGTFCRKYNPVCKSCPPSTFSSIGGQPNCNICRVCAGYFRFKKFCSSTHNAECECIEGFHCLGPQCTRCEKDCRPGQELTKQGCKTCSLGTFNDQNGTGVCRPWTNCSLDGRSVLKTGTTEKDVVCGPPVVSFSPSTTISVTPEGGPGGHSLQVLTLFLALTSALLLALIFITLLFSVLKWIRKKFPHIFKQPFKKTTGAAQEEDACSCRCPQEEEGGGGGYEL
binder,measurement,setting,value
"Monovalent FAP(28H1)-targeted single chain 4-1BB ligand trimer-containing Fc (kih) fusion antigen binding molecule (Compound S1) (Fc fusion, Heterodimer of knob chain, hole chain and one light chain; human IgG1 Fc with P329G, L234A, L235A and knob-into-hole mutations; also called FAP single chain 4-1BBL trimer; FAP-targeted single chain trimeric 4-1BBL) [left out - about 200 residues]GGGGSGGGGSREGPELSPDDPAGLLDLRQGMFAQLVAQNVLLIDGPLSWYSDPGLAGVSLTGGLSYKEDTKELVVAKAGVYYVFFQLELRRVVAGEGSGSVSLALHLQPLRSAAGAAALALTVDLPPASSEARNSAFGFQGRLLHLSAGQRLGVHLHTEARARHAWQLTQGATVLGLFRVTPEIPAGLPSPRSEGGGGSGGGGSREGPELSPDDPAGLLDLRQGMFAQLVAQNVLLIDGPLSWYSDPGLAGVSLTGGLSYKEDTKELVVAKAGVYYVFFQLELRRVVAGEGSGSVSLALHLQPLRSAAGAAALALTVDLPPASSEARNSAFGFQGRLLHLSAGQRLGVHLHTEARARHAWQLTQGATVLGLFRVTPEIPAGLPSPRSEGSPGSSSSGS[left out - human IgG1 Fc with changes] heavy: EVQLLESGGGLVQPGGSLRLSCAASGFTFSSHAMSWVRQAPGKGLEWVSAIWASGEQYYADSVKGRFTISRDNSKNTLYLQMNSLRAEDTAVYYCAKGWLGNFDYWGQGTLVTVSSASTKGPSVFPLAPSSKSTSGGTAALGCLVKDYFPEPVTVSWNSGALTSGVHTFPAVLQSSGLYSLSSVVTVPSSSLGTQTYICNVNHKPSNTKVDKKVEPKSCDKTHTCPPCPAPEAAGGPSVFLFPPKPKDTLMISRTPEVTCVVVDVSHEDPEVKFNWYVDGVEVHNAKTKPREEQYNSTYRVVSVLTVLHQDWLNGKEYKCKVSNKALGAPIEKTISKAKGQPREPQVCTLPPSRDELTKNQVSLSCAVKGFYPSDIAVEWESNGQPENNYKTTPPVLDSDGSFFLVSKLTVDKSRWQQGNVFSCSVMHEALHNHYTQKSLSLSPGK light: EIVLTQSPGTLSLSPGERATLSCRASQSVSRSYLAWYQQKPGQAPRLLIIGASTRATGIPDRFSGSGSGTDFTLTISRLEPEDFAVYYCQQGQVIPPTFGQGTKVEIKRTVAAPSVFIFPPSDEQLKSGTASVVCLLNNFYPREAKVQWKVDNALQSGNSQESVTEQDSKDSTYSLSSTLTLSKADYEKHKVYACEVTHQGLSSPVTKSFNRGEC",Kd,[1],540 nM
same,koff,[1],0.033 s⁻¹
same,kon,[1],62000 M⁻¹ s⁻¹
same,EC50 (read off the curve),[2],~0.8 nM
same,EC50 (read off the curve),[3],~0.06 nM
same,EC50 (read off the curve),[4],~0.8 nM
same,EC50 (read off the curve),[5],~5 nM
same,binding result,[6],no binding (tested: about 400 nM)
"Monovalent DP47-containing single chain 4-1BB ligand trimer-containing Fc (kih) fusion antigen binding molecule (Control 1) (Fc fusion, also called DP47 single chain 4-1BBL trimer; DP47-containing single chain trimeric 4-1BBL) [left out - about 200 residues]GGGGSGGGGSREGPELSPDDPAGLLDLRQGMFAQLVAQNVLLIDGPLSWYSDPGLAGVSLTGGLSYKEDTKELVVAKAGVYYVFFQLELRRVVAGEGSGSVSLALHLQPLRSAAGAAALALTVDLPPASSEARNSAFGFQGRLLHLSAGQRLGVHLHTEARARHAWQLTQGATVLGLFRVTPEIPAGLPSPRSEGGGGSGGGGSREGPELSPDDPAGLLDLRQGMFAQLVAQNVLLIDGPLSWYSDPGLAGVSLTGGLSYKEDTKELVVAKAGVYYVFFQLELRRVVAGEGSGSVSLALHLQPLRSAAGAAALALTVDLPPASSEARNSAFGFQGRLLHLSAGQRLGVHLHTEARARHAWQLTQGATVLGLFRVTPEIPAGLPSPRSEGSPGSSSSGS[left out - human IgG1 Fc with changes] heavy: [left out - about 100 residues]GSGFDYWGQGTLVTVSSASTKGPSVFPLAPSSKSTSGGTAALGCLVKDYFPEPVTVSWNSGALTSGVHTFPAVLQSSGLYSLSSVVTVPSSSLGTQTYICNVNHKPSNTKVDKKVEPKSCDKTHTCPPCPAPEAAGGPSVFLFPPKPKDTLMISRTPEVTCVVVDVSHEDPEVKFNWYVDGVEVHNAKTKPREEQYNSTYRVVSVLTVLHQDWLNGKEYKCKVSNKALGAPIEKTISKAKGQPREPQVCTLPPSRDELTKNQVSLSCAVKGFYPSDIAVEWESNGQPENNYKTTPPVLDSDGSFFLVSKLTVDKSRWQQGNVFSCSVMHEALHNHYTQKSLSLSPGK light: [left out - about 100 residues][left out - about 100 residues]",Kd,[1],520 nM
same,koff,[1],0.033 s⁻¹
same,kon,[1],62000 M⁻¹ s⁻¹
same,EC50 (read off the curve),[2],~0.6 nM
same,EC50 (read off the curve),[3],~0.04 nM
same,EC50 (read off the curve),[4],~0.5 nM
same,binding result,[5],no binding (tested: 300 nM)
same,binding result,[6],no binding
